Measurements from PubChem BioAssay AID1745845 (National Center for Advancing Translational Sciences (NCATS), 2022).
Screen size: about 360,000 compounds; about 2,600 (0.72%) were called active. Inconclusive results, whose numbers are uncertain, are shown with a selection of clear calls. The call rests on the fitted dose curve; in most records, active means well fitted inhibition curve with a large enough effect; inconclusive means small, poorly fitted or top-dose-only effect; inactive means no such curve, though single readings can be large or run the other way. Potencies of inconclusive entries are doubtful fits and often do not repeat.

Test: Primary qHTS for Inhibitors of ATXN expression; further: nearly all actives have a fitted effect of over 55% in size
Conditions: HEK-293 ATXN2-luciferase reporter, luminescence, 24 h; series mostly up to 57 µM
Summary of the method: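 qHTS (up to 57 uM final) was run with 24 h compound exposure of reporter cells at 37 °C. Each well was multiplexed: SteadyGlo luminescence measured ATXN2-luciferase expression after a fluorogenic Gly-Phe-AFC viability readout (25 uM final).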
Potency means the concentration at half of the fitted maximal effect; tags describe the fitted curve by direction and shape.

Potency, inconclusive:
OCCN(CCO)c1cc2c3ccccc3ccc2c2ccccc12 28.2 µM [inhibitor, partial curve], C/C(=N\NC(=O)COc1cccc(C)c1)c1ccc2ccccc2c1O 3.98 µM [inhibitor, partial curve, poor fit], COc1ccc(CNCCC(c2ccc(F)cc2)c2ccc(OC(C)C)cc2)cc1OC (stereo unspecified) 31.6 µM [inhibitor, single point], O=C(COC(=O)C1CCC(=O)N1)Nc1ccc(Br)cc1 (stereo unspecified) 1.06 µM [inhibitor, partial curve, poor fit], O=C(c1ccc(Cl)c(Cl)c1)N1CCC(=O)N(C(COCc2ccccc2)Cc2ccccc2)CC1 (stereo unspecified) 25.1 µM [inhibitor, single point], CCN(CC)CCCNc1ccc2ncn3c4ccc(O)cc4c(=O)c1c23 1.68 µM [inhibitor, full curve], COc1ccccc1N1CCN(C(=O)c2ccc(COc3cccc4c3OC(C)(C)C4)cc2)CC1 39.8 µM [inhibitor, partial curve, poor fit], O=C(/C=C/c1ccc(Cl)cc1)N1CCN(c2ccc([N+](=O)[O-])c(N3CCOCC3)c2)CC1 15.8 µM [inhibitor, partial curve, poor fit], COc1cccc(CN(C)C(=O)c2ccc(OCC(=O)Nc3cccc(C(F)(F)F)c3)c(OC)c2)c1 11.2 µM [inhibitor, partial curve], O=C(C1CCCN(S(=O)(=O)c2cccc3nonc23)C1)N1CCN(c2cccc(Cl)c2)CC1 (stereo unspecified) 28.2 µM [inhibitor, single point], Cc1ccc(S(=O)(=O)N(C)C)cc1NC(=O)C(C)N(C)Cc1sccc1C (stereo unspecified) 9.47 µM [inhibitor, full curve, poor fit], Cn1nc(C(C)(C)C)cc1C(=O)N1CCCC(c2cc(C(=O)Nc3ccccc3Cl)no2)C1 (stereo unspecified) 20 µM [inhibitor, partial curve, poor fit], COc1cc(/C=N/Nc2nc3c(c(=O)n(C)c(=O)n3C)n2Cc2ccccc2)ccc1OC(=O)c1ccco1 39.8 µM [inhibitor, single point], CC(CCC(C)C(C)(C)C)[C@@H]1CC[C@H]2C3C[C@H](OS(O)(=S)=S)[C@H]4C[C@H](OS(O)(=S)=S)[C@@H](OS(O)(=S)=S)C[C@]4(C)[C@H]3CC[C@]12C (stereo partly specified) (tested in a mixture with another compound) 31.6 µM [inhibitor, single point], COc1cc(OC)cc(-c2sc3ccc(OC)cc3c2-c2ccc(OCCN3CCCCC3)cc2)c1 39.8 µM [inhibitor, single point], CC(=O)Nc1ccc(Nc2c([N+](=O)[O-])cc(S(C)(=O)=O)cc2[N+](=O)[O-])cc1 10.6 µM [inhibitor, partial curve, poor fit], COc1cc(CN(C)CC2CCCN(CCc3ccccc3F)C2)cc(Cl)c1OC (stereo unspecified) 31.6 µM [inhibitor, single point], C[C@@H]1CN([C@@H](C)CO)C(=O)c2c(c3ccccc3n2C)-c2ccccc2CO[C@H]1CN(C)C(=O)[C@H](Cc1ccccc1)N(C)C 28.2 µM [inhibitor, single point], Cc1ccc(CNC(=O)CN(c2ccc(C(C)C)cc2)S(=O)(=O)c2c(C)n[nH]c2C)cc1 35.5 µM [inhibitor, single point], Cc1cc(OCCCCCNCCO)cc(C)c1Cl 15.8 µM [inhibitor, partial curve, poor fit], Cc1ccc2nc(N(CCCN(C)C)C(=O)c3sc4ccccc4c3Cl)sc2c1 35.5 µM [inhibitor, single point], CCn1c(N)[n+](CC(=O)Nc2ccc(SC(F)F)cc2)c2ccccc21 22.4 µM [inhibitor, partial curve, poor fit], Cc1cc(C)c2c(=O)c3c(oc2c1)C(=O)N(Cc1ccc(F)cc1)C3c1cccc(O)c1 (stereo unspecified) 39.8 µM [inhibitor, single point], CCC(=O)N1CCCc2cc(S(=O)(=O)N3CCC(C(=O)Nc4ccc(F)c(F)c4)CC3)ccc21 31.6 µM [inhibitor, partial curve, poor fit], O=C(CCS(=O)(=O)c1cccs1)Nc1ccc(C(=O)Nc2cccc(Cl)c2)cc1 22.4 µM [inhibitor, partial curve, poor fit], Oc1ccc(Cc2ccccc2)c2cccnc12 39.8 µM [inhibitor, single point], O=Cc1s/c(=N\S(=O)(=O)c2ccccc2)n(CCCCl)c1Cl 6.31 µM [inhibitor, single point], Cc1cccc(Cn2c(CN3CCN(Cc4ccccc4)CC3)nc3c2c(=O)[nH]c(=O)n3C)c1 39.8 µM [inhibitor, single point], CC1=C(C(=O)N(C)C)CC(CC(=O)NCc2cccc3ccccc23)C(=O)N1Cc1ccc(C(C)(C)C)cc1 (stereo unspecified) 31.6 µM [inhibitor, single point], O=C1NC(Cc2ccccc2)c2nc3cc(F)c(F)cc3c(=O)n2-c2ncccc21 (stereo unspecified) 39.8 µM [inhibitor, single point], COc1ccc(CCNCC(O)c2ccccc2)cc1 (stereo unspecified) 8.44 µM [inhibitor, single point], COc1ccc(NC(=O)c2cc(-c3cc(F)ccc3OCC3CCCO3)n[nH]2)cc1OC (stereo unspecified) 35.5 µM [inhibitor, single point], Cc1cccc(N(CC(=O)NCCSCc2ccc(Cl)cc2)S(C)(=O)=O)c1C 39.8 µM [inhibitor, single point], COc1ccc(C(=O)/C=C/c2ccc(O)cc2)c(O)c1C/C=C(\C)CCC=C(C)C 35.5 µM [inhibitor, single point], O=C(Cn1cnc2sc(-c3ccccc3)cc2c1=O)NCCc1ccccc1 39.8 µM [inhibitor, single point], CCc1ccc(-c2nc(CSCC(=O)NC3CC3)c(C)o2)cc1 2.82 µM [inhibitor, full curve], O=C1/C(=C\c2ccco2)SC(=S)N1C1CCS(=O)(=O)C1 (stereo unspecified) 39.8 µM [inhibitor, single point], Cc1cccc(N2CCN(C(=O)CCC(=O)N3Cc4ccccc4Oc4ncccc43)CC2)c1C 39.8 µM [inhibitor, single point]

Potency, inactive:
CCOC(=O)c1cnc2ccc(C(=O)OC)cc2c1Nc1ccccc1CC, CCCC(C)C(=O)Nc1nc(C)c(-c2csc(Nc3cc(Cl)ccc3C)n2)s1 (stereo unspecified), CS(=O)(=O)c1ccc2nc(NC(=O)Nc3cccc(Cl)c3)sc2c1, COC(=O)c1ccccc1NC(=O)CSc1nc(-c2ccccc2)cc(C(F)(F)F)n1, COC(=O)c1sccc1NC(=S)NCc1ccc(Cl)cc1, CCN1C(=O)C(=O)N(CC(=O)NC(C)CCc2ccccc2)C1=O (stereo unspecified), CC1CCN(C(=O)CN2C(=O)C(=O)N(C)C2=O)c2ccccc2S1 (stereo unspecified), O=C(c1cnc2cc(-c3ccccc3)nn2c1)c1cc([N+](=O)[O-])ccc1O, O=C(NCCO)C1CCN(S(=O)(=O)c2ccc(F)cc2)CC1, Cc1ccc(CCNC(=O)c2cc(-c3ccncc3)nc3ccccc23)cc1, CCOC(=O)c1c(N)n[nH]c1-c1ccc(OC)cc1, Cc1ccc(-c2cc(NC(=O)C(C)Oc3ccc(C)c(C)c3)on2)cc1 (stereo unspecified), CCn1cc(C(=O)O)c(=O)c2cnc(N3CCN(C(=S)NC(=O)c4ccccc4)CC3)nc21, COc1ccc(-c2cc3nc(-c4ccccc4)cc(N4CCC5(CC4)OCCO5)n3n2)cc1, O=C(CSc1ccccc1C(=O)O)NCc1ccccc1, CC12CCC(=O)N1C(C(=O)NCc1ccc(Cl)cc1Cl)CS2 (stereo unspecified), O=C(NC1CCCCCC1)c1cc2c(Cl)nc3ccccc3c2s1, COc1ccc(NC(=O)c2nnn(Cc3nc(-c4cc(OC)c(OC)c(OC)c4)oc3C)c2C)cc1, CCn1c(=NC(=O)CS(=O)(=O)c2ccc(F)cc2)sc2cccc(OC)c21, N#CC1=C(N)Oc2cc(Nc3ccccc3)ccc2C1c1ccncc1 (stereo unspecified), Cc1oc(-c2ccc(Cl)cc2)nc1Cn1c(=O)cc(C)c2c(C)nn(-c3cccc(F)c3)c21, CCOC(=O)c1ccccc1NC(=O)CN1C(=O)CC(c2ccco2)Sc2ccccc21 (stereo unspecified), CC1CC(C)CN(C(=O)Cn2ncc3c([nH]c4ccccc43)c2=O)C1 (stereo unspecified), Cc1noc(C)c1COc1ccc(C(=O)O)cc1

Potency, active:
Cc1cccc(N2CCN(C(=O)NC3CCCCC3)CC2C)c1 (stereo unspecified) 22.4 µM, c1ccc(COc2ncnc3c2ncn3CCCN2CCN(Cc3cccc4ccccc34)CC2)cc1 22.4 µM, COc1ccc(NC(=O)C(=O)NCCC2CCCCN2S(=O)(=O)c2ccc(F)cc2)cc1 (stereo unspecified) 2.51 µM, CCn1ncc(C2=NOC(C(=O)Nc3cnn(C45CC6CC(CC(C6)C4)C5)c3)C2)c1C (stereo unspecified) 28.2 µM
